Experimental data as given in PubChem BioAssay AID1508624 (National Center for Advancing Translational Sciences (NCATS), 2021).
Among all 48,000 compounds or so, about 120 (0.25%) were called active. About 4% were inconclusive and are not listed. Calls come from the whole dose curve; as a rule, active = well fitted activation curve with a large enough effect; inconclusive = small, poorly fitted or top-dose-only effect, or another doubt; inactive = no such curve, though single readings can be large or run the other way. The list shows a part of the results.

test: Primary qHTS for Identification of Small Molecule Activators of Huntingtin-Antisense Promoter Activity; conditions: HEK293 HTT-AS promoter firefly luciferase reporter, 24 h; series mostly up to 57.5 µM; activity change, positive = activation: at the top concentration; note: nearly all actives have a fitted effect of over 55% in size
Outline: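 HEK293 Fluc reporter, 2,500 cells/well, 24 h pre-culture; cpds up to 57.5 uM final, 24 h 37 degrees C; Dual-Glo, 10 min RT; normalized vehicle = 0%, zero RLU = -100%.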

Activity change, positive = activation, inactive:
COc1ccc(NC(=O)N(Cc2nnc3n2CCCCC3)c2ccc(OC)c(Cl)c2)cc1 -8.24%
CCN(CC)S(=O)(=O)c1nnc(NC(=O)COc2cccc(C)c2)s1 -17.1%
CCn1c(=O)cc(OCC(=O)Nc2cc(OC)c(OC)c(OC)c2)c2ccccc21 -13.6%
COCCNC(=O)CSc1nc2ccccc2nc1Cc1ccc(C)cc1 -11.2%
CCOc1ccc(CNC(=O)c2ccc3nc(CC)c(CC)nc3c2)cc1OC 4.91%
CCc1ccc(S(=O)(=O)c2c(C(=O)c3ccc(C)c(C)c3)cnc3ccccc23)cc1 -30.9%
COc1cccc(N2CCN(c3ccc4nnc(CCC(=O)O)n4n3)CC2)c1 2.66%
COc1ccc(CCNC(=O)CCCCCn2c(SCC(N)=O)nc3cc4c(cc3c2=O)OCO4)cc1OC -8.92%
CCCCc1oc2ccc(NS(C)(=O)=O)cc2c1C(=O)c1ccc(OCCCN(CCCC)CCCC)cc1
CCN(CC)S(=O)(=O)c1ccc2c(c1)N(CC(=O)Nc1ccc(F)cc1)C(=O)CO2 -21.9%
Cc1ccc(S(=O)(=O)N2CCCc3cc(NC(=O)c4ccccc4Cl)ccc32)cc1 -28.9%
Cc1ccc(C)c(N(C)C(=O)C2CCN(c3ncnc4c3nc3n4CCCCC3)CC2)c1 -16.3%
O=C(CSc1nc2c([nH]c3ccccc32)c(=O)n1-c1ccc(F)cc1)N1CCCc2ccccc21 -4.77%
CCOC(=O)Cn1c(=O)n(C2CCCCC2)c2nc(-c3ccccc3Cl)nc(C(N)=O)c21 -16.2%
Nc1c(-c2nc(-c3ccc(Cl)cc3)no2)nnn1-c1ccc(C(F)(F)F)c(Cl)c1 -5.38%
COc1cc(NC(=O)c2cc(C3CC3)nc3c2c(C)nn3-c2ccc(C)cc2)cc(OC)c1 -34.9%
Cc1cccc(C)c1OCc1nc2c3cnn(-c4ccccc4Br)c3ncn2n1 -13.6%
CCOC(=O)CC(NC(=O)c1cc2c(=O)n3cccc(C)c3nc2s1)c1ccc(OCC(C)C)c(OC)c1 (centres undefined) -17.5%
COc1ccc(-c2c(C)nn3c(-c4ccccc4)cc(-c4ccccc4)nc23)cc1OC 0.821%
COc1ccc(CCN2C(=O)c3[nH]nc(-c4ccccc4O)c3C2c2ccc(O)c(OC)c2)cc1 (centres undefined) -9.26%
O=C(NC1CCCCC1)c1cc(Nc2ccccc2)nc2ccccc12 -9.35%
COC(=O)c1ccc(NC(=O)CCNS(=O)(=O)c2cccc3nsnc23)cc1 -5.71%
CCC(CC)C(=O)Nc1nnc2n1CCS2 -1.7%
O=C(Cn1c(=O)n(-c2ccccc2)c(=O)c2c3c(sc21)CCCC3)Nc1cccc(F)c1 -6.13%
COc1cccc(Cc2nc3ccccc3nc2SCC(=O)Nc2ccccc2F)c1 -13.6%
CN(C)c1ccc(CNC(=O)c2ccc(NC(=O)c3nsc4ccccc34)cc2)cc1 -44.1%
Cc1cccc(CNC(=O)c2ccc3nc(-c4ccccc4)c(-c4ccccc4)nc3c2)c1 -10.2%
Cc1c(C(=O)NCc2ccccc2Cl)cccc1-n1cnc2cccnc21 -2.62%
Cc1ccc(Nc2cc(-c3cccc(N4C(=O)c5ccccc5C4=O)c3)ncn2)cc1NS(C)(=O)=O -57.7%
CCC1(c2ccccc2)C(=O)NCNC1=O
CC(C)C1N=C2c3ccccc3N=C(SCC(=O)NCc3ccc(F)cc3)N2C1=O (centres undefined) 1.79%
Cc1cccc(NC(=O)Cn2c(=O)n(CCc3ccccc3)c(=O)c3sc4ccccc4c32)c1 23.7%
CCC12CN3CC(C)(CN(C1)C3c1c(C)n(C)c3ccccc13)C2=O (centres undefined) 1.34%
O=C1CC(c2ccccc2)Cc2[nH]c(=O)c(-c3nc(-c4ccc(Cl)c(Cl)c4)cs3)cc21 (centres undefined) -15.3%
COC(=O)C1=C(C)NC(C)=C(C(=O)OC(C)(C)CN(C)CCC(c2ccccc2)c2ccccc2)C1c1cccc([N+](=O)[O-])c1 (centres undefined) -77.1%
CC(C)(C)c1ccc(C(=O)NC2=NC(c3cccc(F)c3)CC(=O)N2)cc1 (centres undefined) -1.43%
Cc1cc(C)c2oc(C(=O)NCCc3ccc(S(N)(=O)=O)cc3)cc(=O)c2c1 20.4%
COc1ccc(Cl)cc1NC(=O)C(=O)NCc1ccc(Cl)cc1 6.16%
CCS(=O)(=O)NCCc1sc2nc(-c3ccc(OC)cc3)nn2c1C -1.64%
C[C@]12CCC(=O)C=C1CC[C@@H]1[C@@H]2CC[C@@]2(C)[C@H]1CC[C@]2(O)C(=O)CO -15%
O=C(CNS(=O)(=O)c1ccc(Br)s1)N1CCN(c2ccc(F)cc2)CC1 -37.2%
COCCNS(=O)(=O)c1cc(-c2nn3c(C)nnc3c3ccccc23)ccc1C -11%
Cc1ccc(NC(=O)N2CCN(C(=O)c3nsc4ccccc34)CC2)cc1C -10.2%
Cc1ccc(C(=O)c2sc(Nc3ccc(F)cc3)c(C#N)c2N)cc1 -0.104%
COc1cccc(NC(=O)CN2C=NS(=O)(=O)c3ccccc32)c1 -9.44%
COc1cccc(-c2nc3c(c(SCC(=O)Nc4cccc(C)c4C)n2)Cc2c(CO)cnc(C)c2O3)c1 -14.2%
Cc1cccc(CCn2c(=O)c3ccccc3n(Cc3ccccc3C)c2=O)c1 -9.26%
COc1ccc2c(c1)c1c(c(=O)n(Cc3ccccc3)c(=O)n1CC(=O)Nc1ccccc1F)n2C -16.7%
CCOC(=O)c1cnc(NCc2ccc(OC)cc2OC)c2ccccc12 -20.6%
CCOc1ccccc1NC(=O)N1CC(C)Oc2ccc(Cl)cc21 (centres undefined) -25.6%
Cc1ccc(OC(=O)CSc2nnc(-c3ccc4c(c3)OCO4)o2)c(C)c1 -34.9%
Cc1cccn2c(=O)cc(COc3ccc(NC(=O)COc4ccc(F)cc4)cc3)nc12 0.0124%
CCOC(=O)C1=C(CN(CC)Cc2ccccc2)NC(=O)NC1c1ccc(OC)cc1 (centres undefined) -9.64%
COC(=O)c1c(-c2ccc(Cl)cc2)noc1N1CCN(c2ccccc2F)CC1 -18.6%
CCCCNC(=O)c1ccc2c(c1)NC(=O)C(C(C)C)N2 (centres undefined) -19%
COc1ccc2c(c1)c1c(c(=O)n(-c3ccc(F)c(Cl)c3)c(=O)n1Cc1ccccc1F)n2C -14.2%
COc1ccccc1NC(=O)C(=O)c1cc(C)n(-c2cc(C)cc(C)c2)c1C 26.5%
N#Cc1c(-n2ncnc2-c2cccc(Cl)c2)sc2c1CCCCC2 -21% [at 11.5 µM, percent change from vehicle, -100% = no light]
O=C1CN(C(=O)c2cccc(Br)c2)C(c2ccccc2)c2cc(Cl)ccc2N1 (centres undefined) -32.7%
CC(NC(=O)CCc1cn(Cc2ccccc2Cl)c2ccccc12)c1ccccc1 (centres undefined) -18.2%
O=C(NCCc1ccccc1)c1ccc(CSc2nc3cccnc3n2Cc2ccccc2)cc1 -6.6%
CC(C)CN(c1ccccc1)S(=O)(=O)c1nnc(NC(=O)C2CCCCC2)s1 -9.47%
O=C(NCCO)C(=O)NCC(c1ccc2c(c1)OCO2)N1CCOCC1 (centres undefined) -0.0745%
COc1ccc(/C=C/c2nc(C#N)c(N3CCC(C(N)=O)CC3)o2)cc1OC -12%
Cc1ccc(-c2nc(CS(=O)(=O)CC(=O)NC(C)CCc3ccccc3)c(C)o2)cc1 (centres undefined) -29.8%
O=C(CCS(=O)(=O)c1ccccc1)N(Cc1cccnc1)c1nc2c(F)cccc2s1 8.78%
COc1ccc(C(CC(=O)Nc2ccccn2)N2Cc3ccccc3C2=O)cc1OC (centres undefined) -16.8%
CCc1ccccc1NC(=O)Cn1nnc(C(=O)NCc2ccco2)c1N -18.5%
CCOC(=O)c1nnc2c(-c3ccc(Cl)cc3)c(C)nn2c1N -0.0851%
CCOCCCNC(=O)c1ccc(-c2nc(CS(=O)(=O)c3ccccc3)c(C)o2)cc1 -18.4%
CNC(=O)C1CCCN(c2nnc(C)c3c(C)n(-c4ccccc4)nc23)C1 (centres undefined) -5.96%
CCOC(=O)C1CCN(c2cc3c(cc2NC(=O)c2ccccc2Cl)n(C)c(=O)n3C)CC1 -29.7%
O=C(O)CCc1ccc(-c2ccc(Br)cc2)n1-c1ccccc1O -16%
CCCCN(CC)CCNC(=O)Cn1cnc2sc(C)c(S(=O)(=O)N3CCN(c4ccccc4OC)CC3)c2c1=O 9.19%
CC(C)Cc1nn2cc(-c3cccc(Br)c3)nc2s1 -32.2%
CCOc1ccc(N2CC(c3nc4ccccc4n3CCOc3ccc(OC)cc3)CC2=O)cc1 (centres undefined) -22.4%
O=C(Nc1ccc(F)c(Cl)c1)c1cc(S(=O)(=O)NCc2ccc3c(c2)OCO3)ccc1F -30.6%
Cc1cc2nc(-c3ccc(NC(=O)c4ccc(OCC(C)C)cc4)cc3)oc2cc1C 0.915%
CCOc1cccc2sc(N(Cc3cccnc3)C(C)=O)nc12 -22%
O=C(c1ccccc1)N1CCC(c2nc3ccccc3o2)CC1 -17.9%
CN(C)CCC=C1c2ccccc2COc2ccc(CC(=O)O)cc21 8.53%
COc1ccc(CCNC(=O)c2cnn(-c3cccc(C)c3)c2C2CCNCC2)cc1OC -13.1%
CN1C(=O)Cc2cc(S(=O)(=O)CCC(=O)Nc3ccc(Cl)cc3)ccc21 -8.48%
CC(=O)c1ccc(NC(=O)c2cc3c([nH]c2=O)CC(c2ccccc2)CC3=O)cc1 (centres undefined) -10.1%
CCOc1ccc2c(c1)c(=O)c(C(=O)c1ccccc1)cn2Cc1ccccc1F -14.1%
COc1ccc(OC)c(CNS(=O)(=O)c2cc(-c3onc(C)c3C)ccc2C)c1 -25.6%
CCN(CC)C(=O)c1sc2c(c1C)c(=O)n(-c1ccc(C)c(C)c1)c(=O)n2CC(=O)Nc1ccc(OC)cc1OC -21.6%
Cc1cc(F)ccc1NC(=O)CCS(=O)(=O)c1cc2c3c(c1)CCN3C(=O)CC2 -1.54%
CCS(=O)(=O)N1CC(=O)N(c2cc(C)cc(C)c2)C(C)(C(=O)NC2CCCCC2)C1 (centres undefined) -4.18%
Cc1cc(C)n2c(Nc3ccc4c(c3)OCCO4)c(-c3ccccc3)nc2n1 -8.84%
COc1ccc(N2CCN(CCCNC(=O)c3nnc(Cc4ccccc4Cl)o3)CC2)cc1 -25%
COc1ccc(/C=C/C(=O)Nc2cc(-c3nc4ccccc4o3)ccc2OC)cc1 -16.9%
CC(=O)c1ccc(NC(=O)CSc2nnc(-c3ccncc3)n2-c2ccccc2)cc1 -9.14%
Cc1ccc(S(=O)(=O)c2[nH]c(-c3ccccc3)nc2SC(C)C(=O)O)cc1 (centres undefined) -7.12%
